In the supplement of paper PMC4967469:
A lower IC50 marks a more sensitive line; fits outside the tested doses are given as limits. AUC sums up the same curve from the lowest dose to the 256-fold higher top dose; values near 1 show little effect. For some of these results: Any top dose called inferred comes from the curve model; the source does not state it. For some of these results: An entry number marks a drug with two screens in the source, which often give different values.

Key:
PAC-1 = compound: C=CCc1cccc(/C=N/NC(=O)CN2CCN(Cc3ccccc3)CC2)c1O [PAC-1]; assay: Viability of human cancer cell lines after 72 h of drug (GDSC screen); settings: top dose 2.56 µM
Experimental: (§1)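 Human cancer cell lines in 384-well plates, medium with 10% serum, drug for 72 h over a 256-fold dose range (nine 2-fold or five 4-fold steps up to the top dose). Adherent lines were fixed and stained with the nucleic acid dye Syto60, suspension lines read with resazurin; signal relative to control wells, capped at 0 and 100%. One two-parameter sigmoid per drug and line, fitted in a mixed model over all curves with the slope shared within a line.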

BMS-708163 = compound: NC(=O)[C@@H](CCC(F)(F)F)N(Cc1ccc(-c2ncon2)cc1F)S(=O)(=O)c1ccc(Cl)cc1 [BMS-708163]; assay: as above; settings: top dose inferred
Experimental: as §1

[1] = top dose 5 µM, screen: GDSC drug entry 1072

Cell Line | AUC (PAC-1) | IC50 (PAC-1) [nM] | AUC (BMS-708163; [1]) | IC50 (BMS-708163; [1]) [nM] | AUC (BMS-708163; screen: GDSC drug entry 205) | IC50 (BMS-708163; screen: GDSC drug entry 205) [nM]
22RV1 (prostate, adherent) | 0.943 | > 2560 | 0.881 | > 5000 |  | 
42-MG-BA (glioma, adherent) | 0.95 | > 2560 | 0.963 | > 5000 |  | 
201T (lung adenocarcinoma, adherent) | 0.911 | > 2560 | 0.934 | > 5000 |  | 
451Lu (melanoma, adherent) | 0.989 | > 2560 | 0.984 | > 5000 |  | 
639-V (bladder, adherent) | 0.991 | > 2560 | 0.992 | > 5000 |  | 
647-V (bladder, adherent) | 0.955 | > 2560 | 0.983 | > 5000 |  | 
769-P (kidney, adherent) | 0.788 | 1230 | 0.959 | > 5000 |  | 
786-0 (kidney, adherent) | 0.755 | 805 | 0.52 | 353 |  | 
5637 (bladder, adherent) | 0.948 | > 2560 | 0.986 | > 5000 |  | 
8305C (thyroid, adherent) | 0.885 | > 2560 | 0.889 | > 5000 |  | 
8505C (thyroid, adherent) | 0.836 | 1840 | 0.985 | > 5000 |  | 
23132-87 (stomach, adherent) | 0.935 | > 2560 | 0.96 | > 5000 |  | 
A172 (glioma, adherent) | 0.978 | > 2560 | 0.932 | > 5000 |  | 
A204 (rhabdomyosarcoma, adherent) | 0.952 | > 2560 | 0.936 | > 5000 |  | 
A375 (melanoma, adherent) | 0.789 | 921 | 0.98 | > 5000 |  | 
A427 (non-small cell lung carcinoma, adherent) | 0.913 | > 2560 | 0.985 | > 5000 |  | 
A431 (skin, adherent) | 0.906 | > 2560 | 0.966 | > 5000 |  | 
A673 (rhabdomyosarcoma, adherent) | 0.989 | > 2560 | 0.958 | > 5000 |  | 
A704 (kidney, adherent) | 0.916 | > 2560 | 0.966 | > 5000 |  | 
A2058 (melanoma, adherent) | 0.99 | > 2560 | 0.989 | > 5000 |  | 
A2780 (ovary, semi-adherent) | 0.906 | > 2560 | 0.927 | > 5000 |  | 
ABC-1 (lung adenocarcinoma, adherent) | 0.974 | > 2560 | 0.975 | > 5000 |  | 
ACHN (kidney, adherent) | 0.848 | 2310 | 0.976 | > 5000 |  | 
AGS (stomach, adherent) | 0.983 | > 2560 | 0.984 | > 5000 |  | 
AN3-CA (endometrium, adherent) | 0.953 | > 2560 | 0.985 | > 5000 |  | 

Cell Line | AUC (PAC-1) | IC50 (PAC-1) [nM] | AUC (BMS-708163; [1]) | IC50 (BMS-708163; [1]) [nM] | AUC (BMS-708163; screen: GDSC drug entry 205) | IC50 (BMS-708163; screen: GDSC drug entry 205) [nM]
ASH-3 (thyroid, adherent) | 0.915 | > 2560 | 0.986 | > 5000 |  | 
AU565 (breast, adherent) | 0.855 | 2420 | 0.876 | > 5000 |  | 
AsPC-1 (pancreas, adherent) | 0.94 | > 2560 | 0.881 | > 5000 |  | 
BCPAP (thyroid, adherent) | 0.934 | > 2560 | 0.964 | > 5000 |  | 
BEN (non-small cell lung carcinoma, adherent) | 0.985 | > 2560 | 0.986 | > 5000 |  | 
BFTC-905 (bladder, adherent) | 0.947 | > 2560 | 0.963 | > 5000 |  | 
BFTC-909 (kidney, adherent) | 0.988 | > 2560 | 0.963 | > 5000 |  | 
BHT-101 (thyroid, adherent) | 0.966 | > 2560 | 0.912 | > 5000 |  | 
BHY (head and neck, adherent) | 0.961 | > 2560 | 0.977 | > 5000 |  | 
BICR10 (head and neck, adherent) | 0.98 | > 2560 | 0.985 | > 5000 |  | 
BICR22 (head and neck, adherent) | 0.978 | > 2560 | 0.981 | > 5000 |  | 
BICR31 (head and neck, adherent) | 0.987 | > 2560 |  |  |  | 
BICR78 (head and neck, adherent) | 0.983 | > 2560 | 0.918 | > 5000 |  | 
BPH-1 (prostate, adherent) | 0.969 | > 2560 | 0.933 | > 5000 |  | 
BT-20 (breast, adherent) | 0.98 | > 2560 | 0.944 | > 5000 |  | 
BT-483 (breast, adherent) | 0.952 | > 2560 | 0.976 | > 5000 |  | 
BxPC-3 (pancreas, adherent) | 0.845 | 2190 | 0.95 | > 5000 |  | 
C3A (liver, adherent) | 0.976 | > 2560 | 0.981 | > 5000 |  | 
C32 (melanoma, adherent) | 0.986 | > 2560 | 0.975 | > 5000 |  | 
C-4-I (cervix, adherent) | 0.975 | > 2560 | 0.979 | > 5000 |  | 
C-33-A (cervix, adherent) | 0.97 | > 2560 | 0.983 | > 5000 |  | 
CAKI-1 (kidney, adherent) | 0.88 | > 2560 | 0.943 | > 5000 |  | 
CAL-12T (non-small cell lung carcinoma, adherent) | 0.983 | > 2560 | 0.893 | > 5000 |  | 
CAL-27 (head and neck, adherent) | 0.978 | > 2560 | 0.94 | > 5000 |  | 
CAL-29 (bladder, adherent) | 0.955 | > 2560 | 0.973 | > 5000 |  | 

Cell Line | AUC (PAC-1) | IC50 (PAC-1) [nM] | AUC (BMS-708163; [1]) | IC50 (BMS-708163; [1]) [nM] | AUC (BMS-708163; screen: GDSC drug entry 205) | IC50 (BMS-708163; screen: GDSC drug entry 205) [nM]
CAL-33 (head and neck, adherent) | 0.984 | > 2560 | 0.964 | > 5000 |  | 
CAL-39 (cervix, adherent) | 0.973 | > 2560 | 0.958 | > 5000 |  | 
CAL-51 (breast, adherent) | 0.907 | > 2560 | 0.987 | > 5000 |  | 
CAL-54 (kidney, adherent) | 0.794 | 1380 | 0.941 | > 5000 |  | 
CAL-62 (thyroid, adherent) | 0.987 | > 2560 | 0.95 | > 5000 |  | 
CAL-72 (osteosarcoma, adherent) | 0.966 | > 2560 | 0.983 | > 5000 |  | 
CAL-78 (chondrosarcoma, adherent) | 0.983 | > 2560 | 0.984 | > 5000 |  | 
CAL-85-1 (breast, adherent) | 0.929 | > 2560 | 0.953 | > 5000 |  | 
CAL-120 (breast, adherent) | 0.97 | > 2560 | 0.98 | > 5000 |  | 
CAMA-1 (breast, adherent) | 0.802 | 1650 | 0.972 | > 5000 |  | 
CAPAN-1 (pancreas, adherent) | 0.936 | > 2560 | 0.833 | 3750 |  | 
CCF-STTG1 (glioma, adherent) | 0.964 | > 2560 | 0.988 | > 5000 |  | 
CCK-81 (large intestine, adherent) | 0.923 | > 2560 | 0.986 | > 5000 |  | 
CHL-1 (melanoma, adherent) | 0.959 | > 2560 | 0.987 | > 5000 |  | 
CHP-212 (neuroblastoma, adherent) | 0.987 | > 2560 | 0.957 | > 5000 |  | 
CHSA0011 (chondrosarcoma, adherent) | 0.977 | > 2560 | 0.98 | > 5000 |  | 
CHSA0108 (chondrosarcoma, adherent) | 0.816 | 1710 | 0.984 | > 5000 |  | 
COLO-792 (melanoma, adherent) | 0.97 | > 2560 |  |  |  | 
Caov-3 (ovary, adherent) | 0.991 | > 2560 |  |  |  | 
HCC-78 (lung adenocarcinoma, adherent) | 0.921 | > 2560 |  |  |  | 
HT-1376 (bladder, adherent) | 0.947 | > 2560 |  |  |  | 
LCLC-97TM1 (large cell lung carcinoma, adherent) | 0.831 | 1850 |  |  |  | 
LoVo (large intestine, adherent) | 0.98 | > 2560 |  |  |  | 
MDA-MB-330 (breast, adherent) | 0.978 | > 2560 |  |  |  | 
NCI-H810 (large cell lung carcinoma, adherent) | 0.948 | > 2560 |  |  |  | 

Cell Line | AUC (PAC-1) | IC50 (PAC-1) [nM] | AUC (BMS-708163; [1]) | IC50 (BMS-708163; [1]) [nM] | AUC (BMS-708163; screen: GDSC drug entry 205) | IC50 (BMS-708163; screen: GDSC drug entry 205) [nM]
NCI-H2228 (lung adenocarcinoma, adherent) | 0.93 | > 2560 |  |  |  | 
NCI-H2342 (lung adenocarcinoma, adherent) | 0.911 | > 2560 |  |  |  | 
SISO (cervix, adherent) | 0.983 | > 2560 |  |  |  | 
SNU-475 (liver, adherent) | 0.984 | > 2560 |  |  |  | 
SNU-C2B (large intestine, adherent) | 0.975 | > 2560 |  |  |  | 
SW756 (cervix, adherent) | 0.984 | > 2560 |  |  |  | 
VMRC-RCW (kidney, adherent) | 0.902 | > 2560 |  |  |  | 
WM793B (melanoma, adherent, top dose 10.24 µM) |  |  |  |  | 0.959 | > 10200
WM1552C (melanoma, adherent, top dose 10.24 µM) |  |  |  |  | 0.985 | > 10200
WM-115 (melanoma, adherent, top dose 10.24 µM) |  |  |  |  | 0.957 | > 10200
WSU-DLCL2 (B-cell lymphoma, suspension, top dose 10.24 µM) |  |  |  |  | 0.992 | > 10200
WSU-NHL (lymphoid neoplasm, suspension, top dose 10.24 µM) |  |  |  |  | 0.99 | > 10200
YAPC (pancreas, adherent, top dose 10.24 µM) |  |  |  |  | 0.984 | > 10200
YH-13 (glioma, adherent) |  |  | 0.985 | > 5000 |  | 
YH-13 (glioma, adherent, top dose 10.24 µM) |  |  |  |  | 0.978 | > 10200
YKG-1 (glioma, adherent) |  |  | 0.98 | > 5000 |  | 
YKG-1 (glioma, adherent, top dose 10.24 µM) |  |  |  |  | 0.985 | > 10200
YMB-1-E (breast, adherent, top dose 10.24 µM) |  |  |  |  | 0.979 | > 10200
YT (lymphoid neoplasm, suspension, top dose 10.24 µM) |  |  |  |  | 0.965 | > 10200
ZR-75-30 (breast, adherent) |  |  | 0.982 | > 5000 |  | 
huH-1 (liver, adherent, top dose 10.24 µM) |  |  |  |  | 0.978 | > 10200
no-10 (glioma, adherent, top dose 10.24 µM) |  |  |  |  | 0.98 | > 10200
no-11 (glioma, adherent, top dose 10.24 µM) |  |  |  |  | 0.981 | > 10200
